Test results reported in the supplement of paper PMC4604168 (melanoma cell lines).
Some of the results follow. Most values come without repeats; read them as rough.

Tests used:
Assay in all cases: cell count relative to DMSO control; melanoma cells; higher = more viable cells
Conditions in all cases: library dose: standard library concentration; 72 h
G361 = system: G361
IPC-298 = system: IPC-298
IST-MEL1 = system: IST-MEL1
LB2518-MEL = system: LB2518-MEL
LOXIMVI = system: LOXIMVI
MEL-HO = system: MEL-HO
MZ2-MEL = system: MZ2-MEL
MeWo = system: MeWo
RPMI7951 = system: RPMI7951
RVH-421 = system: RVH-421
SkMel28 = system: SkMel28
SkMel2 = system: SkMel2
SkMel30 = system: SkMel30
SkMel5 = system: SkMel5
UACC257 = system: UACC257
UACC62 = system: UACC62
WM115 = system: WM115
WM1716 = system: WM1716
WM1745 = system: WM1745
WM3526 = system: WM3526
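Note: cells treated in 1,536-well plates, then fixed and DAPI-stained, with nuclei counted from automated high-throughput microscope images.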

Row | SMILES | cell count (G361) [%] | cell count (IPC-298) [%] | cell count (IST-MEL1) [%] | cell count (LB2518-MEL) [%] | cell count (LOXIMVI) [%] | cell count (MEL-HO) [%] | cell count (MZ2-MEL) [%] | cell count (MeWo) [%] | cell count (RPMI7951) [%] | cell count (RVH-421) [%] | cell count (SkMel28) [%] | cell count (SkMel2) [%] | cell count (SkMel30) [%] | cell count (SkMel5) [%] | cell count (UACC257) [%] | cell count (UACC62) [%] | cell count (WM115) [%] | cell count (WM1716) [%] | cell count (WM1745) [%] | cell count (WM3526) [%]
1 | Nc1ccn([C@@H]2O[C@H](CO)[C@@H](O)C2(F)F)c(=O)n1 [gemcitabine] + Cn1cncc1[C@@](N)(c1ccc(Cl)cc1)c1ccc2c(c1)c(-c1cccc(Cl)c1)cc(=O)n2C [tipifarnib] (first compound 0.002 µM, partner dose 0.05 µM) | 31.2 | 47.9 | 43.8 | 66 | 74.2 | 57.6 | 92.9 | 36.2 | 68.4 | 50 | 83.3 | 91.3 | 97.4 | 90.6 | 106 | 90.2 | 53.3 | 63.4 | 64.4 | 83.3
2 | Nc1ccn([C@@H]2O[C@H](CO)[C@@H](O)C2(F)F)c(=O)n1 [gemcitabine] + CN(NC(=O)CC(=O)NN(C)C(=S)c1ccccc1)C(=S)c1ccccc1 [STA4783] (first compound 0.002 µM, partner dose 0.03 µM) | 20.9 | 38.2 | 15.3 | 16.4 | 48.9 | 60.7 | 87 | 15.6 | 55.8 | 47.4 | 19.9 | 73.7 | 95.3 | 74.1 | 91.4 | 38.4 | 24.8 | 63.9 | 37.6 | 100
3 | Nc1ncn([C@H]2C[C@H](O)[C@@H](CO)O2)c(=O)n1 [decitabine] + CO[C@@H]1[C@H](N(C)C(=O)c2ccccc2)C[C@H]2O[C@]1(C)n1c3ccccc3c3c4c(c5c6ccccc6n2c5c31)C(=O)NC4 [Midostaurin] (first compound 0.5 µM, partner dose 0.4 µM) | 37.3 | 40.8 | 54.2 | 49.7 | 43.5 | 61.7 | 37.4 | 48.2 | 29.6 | 58 | 45.9 | 45.7 | 79.3 | 56.5 | 52.2 | 43.9 | 32.9 | 31.2 | 33.9 | 91.6
4 | Nc1ncn([C@H]2C[C@H](O)[C@@H](CO)O2)c(=O)n1 [decitabine] + Cn1c(Nc2ccc(C(F)(F)F)cc2)nc2cc(Oc3ccnc(-c4ncc(C(F)(F)F)[nH]4)c3)ccc21 [CHIR265] (first compound 0.5 µM, partner dose 0.4 µM) | 23 | 38.6 | 72.6 | 36.2 | 68.5 | 55.5 | 67.5 | 63.2 | 52.9 | 57.8 | 29.7 | 59.1 | 66.4 | 38.5 | 87.1 | 50.1 | 38.8 | 57.6 | 74.8 | 38.8
5 | Nc1ncn([C@H]2C[C@H](O)[C@@H](CO)O2)c(=O)n1 [decitabine] + Cc1ccc(NC(=O)c2cccc(N(C)C)c2)cc1NC(=O)c1ccc(O)cc1 [ZM336372] (first compound 0.5 µM, partner dose 10 µM) | 108 | 74.9 | 74.2 | 82.4 | 110 | 84 | 98 | 78.4 | 82.4 | 95.7 | 81.1 | 96.2 | 129 | 82.2 | 89.9 | 77.7 | 82.9 | 88.3 | 87.2 | 102
6 | CO[C@H]1C[C@@H]2CC[C@@H](C)[C@@](O)(O2)C(=O)C(=O)N2CCCC[C@H]2C(=O)O[C@H]([C@H](C)C[C@@H]2CC[C@@H](OCCO)[C@H](OC)C2)CC(=O)[C@H](C)/C=C(\C)[C@@H](O)[C@@H](OC)C(=O)[C@H](C)C[C@H](C)/C=C/C=C/C=C/1C [everolimus] + O=C(Nc1cccc(Cl)c1)Nc1ncc(CCNc2ncnc3ccsc23)s1 [SNS314] (first compound 0.1 µM, partner dose 0.004 µM) | 63.2 | 75.8 | 57.1 | 72.7 | 65.3 | 66.9 | 72 | 60.4 | 108 | 61.2 | 40.3 | 58.3 | 76.7 | 74.2 | 74.4 | 88.8 | 66.9 | 53.5 | 79.1 | 69.2
7 | CO[C@H]1C[C@@H]2CC[C@@H](C)[C@@](O)(O2)C(=O)C(=O)N2CCCC[C@H]2C(=O)O[C@H]([C@H](C)C[C@@H]2CC[C@@H](OCCO)[C@H](OC)C2)CC(=O)[C@H](C)/C=C(\C)[C@@H](O)[C@@H](OC)C(=O)[C@H](C)C[C@H](C)/C=C/C=C/C=C/1C [everolimus] + Cc1cc(N2CCOCC2)cc2[nH]c(-c3c(NC[C@@H](O)c4cccc(Cl)c4)cc[nH]c3=O)nc12 [BMS536924] (first compound 0.1 µM, partner dose 1 µM) | 43.5 | 64.1 | 43.2 | 67.1 | 66.4 | 60.6 | 75.1 | 50.7 | 83.3 | 94 | 41.8 | 56.9 | 61.7 | 41.9 | 68.5 | 64 | 68.5 | 79.5 | 53.6 | 58.8
8 | CO[C@H]1C[C@@H]2CC[C@@H](C)[C@@](O)(O2)C(=O)C(=O)N2CCCC[C@H]2C(=O)O[C@H]([C@H](C)C[C@@H]2CC[C@@H](OCCO)[C@H](OC)C2)CC(=O)[C@H](C)/C=C(\C)[C@@H](O)[C@@H](OC)C(=O)[C@H](C)C[C@H](C)/C=C/C=C/C=C/1C [everolimus] + O=C(O)c1ccc(-c2c[nH]c3ncc(-c4ccccc4)cc23)cc1C1CCCC1 [GSK650394] (first compound 0.1 µM, partner dose 0.8 µM) | 49.9 | 72.9 | 66.5 | 71.4 | 75 | 75.8 | 85.3 | 70.2 | 84.5 | 89.8 | 65 | 70.2 | 91 | 58.4 | 82 | 93.2 | 63 | 73.3 | 85.7 | 66.9
9 | CO[C@H]1C[C@@H]2CC[C@@H](C)[C@@](O)(O2)C(=O)C(=O)N2CCCC[C@H]2C(=O)O[C@H]([C@H](C)C[C@@H]2CC[C@@H](OCCO)[C@H](OC)C2)CC(=O)[C@H](C)/C=C(\C)[C@@H](O)[C@@H](OC)C(=O)[C@H](C)C[C@H](C)/C=C/C=C/C=C/1C [everolimus] + Nc1ccn([C@@H]2O[C@H](CO)[C@@H](O)C2(F)F)c(=O)n1 [gemcitabine] (first compound 0.1 µM, partner dose 0.002 µM) | 38.3 | 30.9 | 38.1 | 57 | 63.6 | 46.6 | 57.9 | 32 | 76.7 | 56.1 | 34.4 | 65 | 72.5 | 64.1 | 77.4 | 71 | 63.2 | 50.3 | 49.7 | 67.3
10 | CO[C@H]1C[C@@H]2CC[C@@H](C)[C@@](O)(O2)C(=O)C(=O)N2CCCC[C@H]2C(=O)O[C@H]([C@H](C)C[C@@H]2CC[C@@H](OCCO)[C@H](OC)C2)CC(=O)[C@H](C)/C=C(\C)[C@@H](O)[C@@H](OC)C(=O)[C@H](C)C[C@H](C)/C=C/C=C/C=C/1C [everolimus] + COc1cc2c(Oc3ccc4[nH]c(C)cc4c3F)ncnc2cc1OCCCN1CCCC1 [cediranib] (first compound 0.1 µM, partner dose 2 µM) | 52.9 | 70.6 | 61.8 | 59.1 | 70.5 | 68.2 | 82.1 | 62.9 | 73.9 | 79.3 | 38.9 | 58 | 65.9 | 51.5 | 82.5 | 86 | 58.3 | 65.1 | 55.2 | 77.6
11 | Nc1ccn([C@@H]2O[C@H](CO)[C@@H](O)C2(F)F)c(=O)n1 [gemcitabine] + COc1cc2c(Oc3ccc4[nH]c(C)cc4c3F)ncnc2cc1OCCCN1CCCC1 [cediranib] (first compound 0.002 µM, partner dose 2 µM) | 43 | 45.1 | 40.2 | 66.3 | 54.3 | 60.1 | 95.1 | 37.7 | 63 | 54.9 | 90.8 | 91.8 | 96.6 | 68.1 | 80.9 | 80 | 64.3 | 57.2 | 52 | 82
12 | Nc1ncn([C@H]2C[C@H](O)[C@@H](CO)O2)c(=O)n1 [decitabine] + C#Cc1cccc(Nc2ncnc3cc(OCCOC)c(OCCOC)cc23)c1 [erlotinib] (first compound 0.5 µM, partner dose 4 µM) | 69.7 | 39.9 | 75.7 | 54.2 | 89.6 | 70.1 | 73.1 | 60.1 | 69.2 | 62.5 | 56.3 | 81.1 | 61.1 | 55.6 | 83.6 | 56.7 | 61.4 | 65.9 | 59.6 | 57.3
13 | Nc1nc(F)nc2c1ncn2[C@@H]1O[C@H](CO)[C@@H](O)[C@@H]1O [fludarabine] + CC1(C)NC(=O)N(c2ccc([N+](=O)[O-])c(C(F)(F)F)c2)C1=O [nilutamide] (first compound 1 µM, partner dose 5 µM) | 81.6 | 78.3 | 104 | 71.2 | 104 | 73 | 110 | 78.3 | 64.4 | 186 | 2.21 | 1.59 | 22.4 | 38 | 35.5 | 65.6 | 77.4 | 96.3 | 83.2 | 24.5
14 | CC(=O)c1c(C)c2cnc(Nc3ccc(N4CCNCC4)cn3)nc2n(C2CCCC2)c1=O [palbociclib] + CN(NC(=O)CC(=O)NN(C)C(=S)c1ccccc1)C(=S)c1ccccc1 [STA4783] (first compound 0.2 µM, partner dose 0.03 µM) | 40 | 67.5 | 20.4 | 34.5 | 58.4 | 83.8 | 83.7 | 24.8 | 63.9 | 55.1 | 27.6 | 50.5 | 53.7 | 51 | 84 | 44.6 | 14.9 | 47.6 | 35.6 | 57.7
